{"source": "PubChem BioAssay (NCATS)", "key": {"[1]": {"molecular_target": "Endonuclease 4 (Escherichia coli (strain K12)) (UniProt P0A6C1)", "test": "Counterscreen for APE1 Inhibitors: qHTS Validation Assay for Inhibitors of Endonuclease IV (AID 1708); further: potency means the concentration at half of the fitted maximal effect", "outline": "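The reaction buffer contained 50 mM Tris-HCl pH 7.5, 50 mM NaCl, 2 mM MgCl2, 1 mM DTT and 0.01% Tween-20. Incision of a 50 nM fluorophore/quencher THF substrate by 2 nM enzyme was measured kinetically.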"}, "[2]": {"test": "qHTS for differential inhibitors of proliferation of Plasmodium falciparum line GB4 (AID 1816);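 further: potency means the concentration at half of the fitted maximal effect; parasite growth measured after 72 h incubation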", "details": "Potency: Plasmodium falciparum GB4 proliferation inhibition"}, "[3]": {"test": "qHTS for differential inhibitors of proliferation of Plasmodium falciparum line D10 (AID 1877);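 further: parasites grown with compound for 72 h before DNA staining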"}, "[4]": {"test": "qHTS for differential inhibitors of proliferation of Plasmodium falciparum line W2 (AID 1883);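 further: potency means the concentration at half of the fitted maximal effect; parasites grown with compound for 72 h before lysis and staining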", "details": "Potency: Plasmodium falciparum W2 proliferation inhibition"}, "[5]": {"molecular_target": "Ferritin light chain (Equus caballus) (UniProt P02791)", "sequence (P02791 whole entry, looked up)": "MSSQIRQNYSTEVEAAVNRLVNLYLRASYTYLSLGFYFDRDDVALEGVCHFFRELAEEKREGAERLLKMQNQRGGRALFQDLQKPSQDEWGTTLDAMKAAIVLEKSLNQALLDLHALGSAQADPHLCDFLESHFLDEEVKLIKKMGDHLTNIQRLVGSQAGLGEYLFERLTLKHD", "test": "qHTS Validation Assay for Identification of Novel General Anesthetics (AID 2323); further: potency means the concentration at half of the fitted maximal effect", "outline": "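Competitive displacement of the profluorescent anesthetic 1-AMA (50% saturated, PBS) from 10 uM apoferritin, 10 min, room temperature. Activity is normalized 380/535 nm fluorescence; concentration-response fitted with a four-parameter Hill equation.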"}, "[6]": {"molecular_target": "ATP-dependent DNA helicase Q1 (Homo sapiens) (UniProt P46063)", "test": "qHTS Validation Assay for Inhibitors of RecQ-Like Dna Helicase 1 (RECQ1) (AID 2353); further: potency means the concentration at half of the fitted maximal effect", "outline": "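RECQ1T1 50 nM; forked duplex (20 bp + 30-nt ss tails) 200 nM, ATP 2 mM final; pH 8.0, 2 mM MgCl2, 2.5 ug/ml poly(dI-dC); 15 min compound preincubation; discontinuous kinetic read over 2 h at RT.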"}, "[7]": {"molecular_target": "RecQ-like DNA helicase BLM (Homo sapiens) (UniProt P54132)", "sequence (P54132 whole entry, looked up)": "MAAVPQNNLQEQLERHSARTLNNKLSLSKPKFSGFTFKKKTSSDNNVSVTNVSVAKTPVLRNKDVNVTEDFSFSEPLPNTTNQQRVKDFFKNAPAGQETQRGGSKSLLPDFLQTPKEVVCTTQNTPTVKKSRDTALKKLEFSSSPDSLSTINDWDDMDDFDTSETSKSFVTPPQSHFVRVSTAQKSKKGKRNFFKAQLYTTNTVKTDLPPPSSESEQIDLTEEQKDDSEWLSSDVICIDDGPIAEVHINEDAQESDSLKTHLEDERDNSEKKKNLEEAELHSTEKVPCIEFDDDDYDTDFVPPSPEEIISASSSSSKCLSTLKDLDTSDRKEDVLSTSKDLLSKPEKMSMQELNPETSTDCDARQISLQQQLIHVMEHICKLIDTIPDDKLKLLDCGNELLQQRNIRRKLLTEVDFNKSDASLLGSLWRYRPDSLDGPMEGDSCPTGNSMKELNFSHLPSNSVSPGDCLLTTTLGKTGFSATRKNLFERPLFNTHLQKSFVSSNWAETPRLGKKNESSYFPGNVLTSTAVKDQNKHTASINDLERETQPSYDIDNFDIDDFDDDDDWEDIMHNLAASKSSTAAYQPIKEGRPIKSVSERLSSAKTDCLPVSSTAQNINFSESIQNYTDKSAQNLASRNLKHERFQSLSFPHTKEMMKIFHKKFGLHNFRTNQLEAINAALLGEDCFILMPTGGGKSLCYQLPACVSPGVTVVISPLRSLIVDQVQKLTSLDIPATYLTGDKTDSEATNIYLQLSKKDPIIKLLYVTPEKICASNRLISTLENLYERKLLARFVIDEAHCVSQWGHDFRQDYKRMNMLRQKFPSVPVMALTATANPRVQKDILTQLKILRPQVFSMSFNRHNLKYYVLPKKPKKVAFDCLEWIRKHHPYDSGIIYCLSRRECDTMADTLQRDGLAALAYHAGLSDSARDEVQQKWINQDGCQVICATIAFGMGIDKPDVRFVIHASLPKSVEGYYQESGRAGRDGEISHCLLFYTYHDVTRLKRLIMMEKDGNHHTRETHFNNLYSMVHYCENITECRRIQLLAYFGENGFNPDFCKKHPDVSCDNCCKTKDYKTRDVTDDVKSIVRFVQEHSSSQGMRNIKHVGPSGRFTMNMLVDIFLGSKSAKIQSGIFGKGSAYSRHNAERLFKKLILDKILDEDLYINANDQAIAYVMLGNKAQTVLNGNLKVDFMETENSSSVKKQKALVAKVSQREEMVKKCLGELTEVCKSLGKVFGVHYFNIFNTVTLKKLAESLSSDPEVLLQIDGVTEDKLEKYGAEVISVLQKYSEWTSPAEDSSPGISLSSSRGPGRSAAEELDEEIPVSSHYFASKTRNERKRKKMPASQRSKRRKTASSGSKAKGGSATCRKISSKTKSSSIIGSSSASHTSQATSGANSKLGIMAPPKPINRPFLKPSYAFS", "test": "qHTS Validation Assay for Inhibitors of Bloom's syndrome helicase (BLM) (AID 2364); further: potency means the concentration at half of the fitted maximal effect", "outline": "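Forked 20-bp duplex substrate (200 nM, TAMRA/BHQ-2) plus 2 mM ATP added after 15 min compound preincubation with 50 nM enzyme, pH 8.0, poly(dI-dC) 2.5 ug/ml. Strand separation followed by fluorescence (525/598 nm) over 2 h, normalized to enzyme-free and DMSO controls.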"}, "[8]": {"molecular_target": "DNA repair nuclease/redox regulator APEX1 (Homo sapiens) (UniProt P27695)", "test": "Confirmation qHTS Assay for Inhibitors of the Human Apurinic/apyrimidinic Endonuclease 1 (APE1) (AID 2572);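 further: fluorescence gain from purified APE1 cutting a TAMRA/BHQ-2 THF abasic duplex; nearly all actives have a fitted effect of over 30% in size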", "outline": "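Inhibition is measured on a short double-stranded THF-site oligo, 50 nM final, whose incision relieves BHQ-2 quenching of TAMRA. After 15 min enzyme–compound preincubation at RT, three reads a minute apart are taken.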"}, "[9]": {"test": "Validation screen for small molecules that induce DNA re-replication in MCF 10A normal breast cells (AID 463097); further: potency means the concentration at half of the fitted maximal effect; nearly all actives have a fitted effect of over 60% in size", "outline": "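Read-out is Hoechst total nuclear intensity by fluorescence scanning imager, flagging increased high-DNA-content nuclei. Compounds were incubated with MCF 10A cells for 48 hr (37 C, 5% CO2) before 40 min staining.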"}, "[10]": {"molecular_target": "Ubiquitin carboxyl-terminal hydrolase 2 (Homo sapiens) (UniProt O75604)", "test": "qHTS Validation Assay for Inhibitors of Ubiquitin-specific Protease USP2a Using CHOP2 as the Reporter (AID 463106); further: potency means the concentration at half of the fitted maximal effect", "details": "USP2a cleavage of CHOP2 reporter, enzymatic", "outline": "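Readout was coupled fluorescence (Ex 485/Em 531 nm), read 60 min after adding 25 nM final Ub-CHOP2 and 25 nM reporter substrate. Beforehand, 10 nM final USP2 core had 30 min at RT with compound in pH 8.0 buffer. Curves were fitted after normalization to NEM and flagged for artifacts using time-zero reads.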"}, "[11]": {"molecular_target": "DNA polymerase III PolC-type (Bacillus subtilis (strain 168)) (UniProt P13267)", "test": "qHTS Validation Assay for the Inhibitors of DNA Replication in Gram-Positive Bacteria (AID 485295); further: potency means the concentration at half of the fitted maximal effect", "outline": "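Double-stranded DNA product detected by PicoGreen fluorescence after EDTA quench. Compound incubated with B. subtilis holoenzyme (PolC, beta subunit, SSB, primase) before substrate addition; primed replication of M13Gori with dNTPs and NTPs at room temperature; DMSO defines 0% inhibition.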"}, "[12]": {"molecular_target": "ATP-dependent 6-phosphofructokinase (Trypanosoma brucei brucei) (UniProt O15648)", "sequence (O15648 whole entry, looked up)": "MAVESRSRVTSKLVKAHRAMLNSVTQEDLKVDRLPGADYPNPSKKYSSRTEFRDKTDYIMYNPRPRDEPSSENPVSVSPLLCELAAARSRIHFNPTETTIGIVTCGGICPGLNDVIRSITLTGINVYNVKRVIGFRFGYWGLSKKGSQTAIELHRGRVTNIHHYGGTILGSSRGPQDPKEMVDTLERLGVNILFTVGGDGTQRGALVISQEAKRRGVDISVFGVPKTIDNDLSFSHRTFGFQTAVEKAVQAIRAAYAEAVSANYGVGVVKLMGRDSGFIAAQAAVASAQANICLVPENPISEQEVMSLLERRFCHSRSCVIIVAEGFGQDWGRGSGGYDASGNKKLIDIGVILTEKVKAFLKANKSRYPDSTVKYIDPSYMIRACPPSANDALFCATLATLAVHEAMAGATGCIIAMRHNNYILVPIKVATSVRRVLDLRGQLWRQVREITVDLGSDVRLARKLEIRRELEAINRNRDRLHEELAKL", "test": "qHTS Validation Assay to Find Inhibitors of T. brucei phosphofructokinase (AID 485368); further: potency means the concentration at half of the fitted maximal effect", "outline": "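qHTS format, up to 57 uM. PFK 1.25 nM; F6P 0.5 mM; ATP 0.1 mM; 5 mM MgCl2, 0.01% Tween20, 0.1% BSA; 0.1 M TEA pH 8.0; 45 min RT; ADP-Glo readout; no-enzyme control = full inhibition.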"}, "[13]": {"molecular_target": "Chromobox protein homolog 1 (Homo sapiens) (UniProt P83916)", "sequence (P83916 whole entry, looked up)": "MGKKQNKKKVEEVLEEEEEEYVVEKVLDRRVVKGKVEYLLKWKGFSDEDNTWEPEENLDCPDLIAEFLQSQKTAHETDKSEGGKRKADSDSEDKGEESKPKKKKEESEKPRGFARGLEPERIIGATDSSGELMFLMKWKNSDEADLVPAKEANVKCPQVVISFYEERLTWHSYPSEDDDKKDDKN", "test": "qHTS Validation Assay for Inhibitors of HP1-beta Chromodomain Interactions with Methylated Histone Tails (AID 488953); further: potency means the concentration at half of the fitted maximal effect; nearly all actives have a fitted effect of over 50% in size", "outline": "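Compounds pinned into a preassembled complex of HP1-beta and trimethyl-K9 histone H3(1-18) biotin peptide (50 nM each; PBS pH 7.4, 0.01% Tween-20). After 30 min, bead-based AlphaScreen detection followed.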"}, "[14]": {"molecular_target": "D(1A) dopamine receptor (Homo sapiens) (UniProt P21728)", "test": "HTS Assay for Allosteric Agonists of the Human D1 Dopamine Receptor: Primary Screen for Potentiators (AID 488982); further: potency means the concentration at half of the fitted maximal effect", "outline": "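Calcium flux in an inducible, force-coupled HEK293 Trex D1 line (overnight at 30 C): agonist mode is the 180 s kinetic read after compound; potentiator mode is the following 180 s read after dopamine at EC20.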"}, "[15]": {"molecular_target": "Tyrosyl-DNA phosphodiesterase 1 (Homo sapiens) (UniProt Q9NUW8)", "sequence (Q9NUW8 whole entry, looked up)": "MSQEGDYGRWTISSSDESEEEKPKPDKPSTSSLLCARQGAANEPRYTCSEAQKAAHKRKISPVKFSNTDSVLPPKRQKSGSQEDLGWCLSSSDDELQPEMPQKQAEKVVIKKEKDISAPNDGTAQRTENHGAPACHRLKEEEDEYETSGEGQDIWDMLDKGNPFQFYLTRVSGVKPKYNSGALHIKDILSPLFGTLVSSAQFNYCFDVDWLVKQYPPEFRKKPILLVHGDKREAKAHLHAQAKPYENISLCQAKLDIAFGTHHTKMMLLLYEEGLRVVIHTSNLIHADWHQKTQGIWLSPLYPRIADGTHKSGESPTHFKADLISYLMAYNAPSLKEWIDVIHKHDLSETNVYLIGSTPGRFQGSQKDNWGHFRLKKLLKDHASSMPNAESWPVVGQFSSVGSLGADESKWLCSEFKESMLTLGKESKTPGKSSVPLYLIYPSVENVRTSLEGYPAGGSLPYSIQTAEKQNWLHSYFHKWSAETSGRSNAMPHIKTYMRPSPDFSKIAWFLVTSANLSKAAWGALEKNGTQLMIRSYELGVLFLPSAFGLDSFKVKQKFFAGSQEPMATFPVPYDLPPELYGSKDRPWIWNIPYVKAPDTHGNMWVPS", "test": "Confirmation Assay for Inhibitors of Tyrosyl-DNA Phosphodiesterase (TDP1) (AID 489007); further: potency means the concentration at half of the fitted maximal effect; nearly all actives have a fitted effect of over 40% in size", "details": "recombinant human TDP1 enzymatic activity, dose-response", "outline": "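Loss of AlphaScreen signal reports Tdp1 cleavage of a dual-labelled DNA substrate. Conditions: 1 nM E. coli-derived enzyme, 15 nM substrate, 15 min compound preincubation, 5 min reaction, 10 min bead incubation, all at room temperature.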"}, "[16]": {"test": "Nrf2 qHTS screen for inhibitors: Validation (AID 493153; active means well fitted inhibition curve with a large enough effect in the main read-out, with a control signal flat, not every such curve was filed as active; inconclusive means small, poorly fitted or top-dose-only effect, or effect the other way, or a change in a side signal; inactive means no such curve, though single readings can be large or run the other way; further: potency means the concentration at half of the fitted maximal effect)", "outline": "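In this counterscreened reporter format, each well gives two signals: CellTiter-Fluor fluorescence for cytotoxicity and ARE-luciferase luminescence for Nrf2 function. A549 ARE_Fluc cells in 5% FBS OPTI-MEM were exposed to compound titrations for 18-24 h.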"}, "[17]": {"molecular_target": "Peptidyl-prolyl cis-trans isomerase NIMA-interacting 1 (Homo sapiens) (UniProt Q13526)", "test": "qHTS Validation Assay to Find Inhibitors of Pin1 (AID 504536; active means well fitted inhibition curve with a large enough effect in the polarisation, with a control signal flat, not every such curve was filed as active; inconclusive means small, poorly fitted or top-dose-only effect, or effect the other way; the % refers to the polarisation; further: potency means the concentration at half of the fitted maximal effect)", "outline": "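Fluorescence polarization competition: compounds (titration) displace HiFluor-488-labeled Pin1-1b peptide from Pin1 (0.3 uM final) in pH 7.5 HEPES buffer with DTT, 10 min at room temperature; %Activity normalized to no-enzyme wells, curves fitted.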"}, "[18]": {"molecular_target": "Phosphoglycerate kinase, glycosomal (Trypanosoma brucei brucei) (UniProt P07378)", "test": "qHTS Validation Assay to Find Inhibitors of Phosphoglycerate Kinase (AID 504547); further: potency means the concentration at half of the fitted maximal effect", "details": "enzymatic PGK inhibition, coupled luminescence read-out", "outline": "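Luminescence end-point (Kinase-Glo Plus, 10 min) after a 60 min room-temperature coupled reaction. GAPDH at 100nM final supplies 1,3-BPG to PGK. Buffer: 100mM TEA pH 7.6, 5mM MgCl2, 0.01% Tween-20. Wells lacking PGK served as controls.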"}, "[19]": {"molecular_target": "Ubiquitin carboxyl-terminal hydrolase 1 (Homo sapiens) (UniProt O94782)", "test": "Inhibitors of USP1/UAF1: Pilot qHTS (AID 504865); further: potency means the concentration at half of the fitted maximal effect; nearly all actives have a fitted effect of over 35% in size", "outline": "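Deubiquitinase activity followed as kinetic rhodamine fluorescence release from 150 nM Ub-Rho. 1 nM USP1/UAF1 with compound, after 15 min room-temperature preincubation, in HEPES pH 7.8 buffer containing TCEP, EDTA, BSA and Tween-20.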"}, "[20]": {"test_system": "Zika virus NS2B-NS3 protease (unlinked)", "test": "Optimization of GU AMC qHTS for Zika virus inhibitors: Unlinked NS2B-NS3 protease assay (AID 1347151); further: potency means the concentration at half of the fitted maximal effect; nearly all actives have a fitted effect of over 80% in size", "details": "recombinant ZIKV NS2B-NS3 protease, fluorogenic AMC substrate; activity change, negative = inhibition: at 52.5 µM (top of the series) unless noted", "outline": "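Fluorescence gain (340/450 nm) over 15 min at room temperature, ~20% conversion, gave percent inhibition fitted to a 4-parameter Hill equation; enzyme was unlinked NS2B-NS3 (25 nM final), pH 8.0 Tris buffer.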"}, "[21]": {"molecular_target": "Lysine-specific demethylase 5B (Homo sapiens) (UniProt Q9UGL1)", "sequence (Q9UGL1 whole entry, looked up)": "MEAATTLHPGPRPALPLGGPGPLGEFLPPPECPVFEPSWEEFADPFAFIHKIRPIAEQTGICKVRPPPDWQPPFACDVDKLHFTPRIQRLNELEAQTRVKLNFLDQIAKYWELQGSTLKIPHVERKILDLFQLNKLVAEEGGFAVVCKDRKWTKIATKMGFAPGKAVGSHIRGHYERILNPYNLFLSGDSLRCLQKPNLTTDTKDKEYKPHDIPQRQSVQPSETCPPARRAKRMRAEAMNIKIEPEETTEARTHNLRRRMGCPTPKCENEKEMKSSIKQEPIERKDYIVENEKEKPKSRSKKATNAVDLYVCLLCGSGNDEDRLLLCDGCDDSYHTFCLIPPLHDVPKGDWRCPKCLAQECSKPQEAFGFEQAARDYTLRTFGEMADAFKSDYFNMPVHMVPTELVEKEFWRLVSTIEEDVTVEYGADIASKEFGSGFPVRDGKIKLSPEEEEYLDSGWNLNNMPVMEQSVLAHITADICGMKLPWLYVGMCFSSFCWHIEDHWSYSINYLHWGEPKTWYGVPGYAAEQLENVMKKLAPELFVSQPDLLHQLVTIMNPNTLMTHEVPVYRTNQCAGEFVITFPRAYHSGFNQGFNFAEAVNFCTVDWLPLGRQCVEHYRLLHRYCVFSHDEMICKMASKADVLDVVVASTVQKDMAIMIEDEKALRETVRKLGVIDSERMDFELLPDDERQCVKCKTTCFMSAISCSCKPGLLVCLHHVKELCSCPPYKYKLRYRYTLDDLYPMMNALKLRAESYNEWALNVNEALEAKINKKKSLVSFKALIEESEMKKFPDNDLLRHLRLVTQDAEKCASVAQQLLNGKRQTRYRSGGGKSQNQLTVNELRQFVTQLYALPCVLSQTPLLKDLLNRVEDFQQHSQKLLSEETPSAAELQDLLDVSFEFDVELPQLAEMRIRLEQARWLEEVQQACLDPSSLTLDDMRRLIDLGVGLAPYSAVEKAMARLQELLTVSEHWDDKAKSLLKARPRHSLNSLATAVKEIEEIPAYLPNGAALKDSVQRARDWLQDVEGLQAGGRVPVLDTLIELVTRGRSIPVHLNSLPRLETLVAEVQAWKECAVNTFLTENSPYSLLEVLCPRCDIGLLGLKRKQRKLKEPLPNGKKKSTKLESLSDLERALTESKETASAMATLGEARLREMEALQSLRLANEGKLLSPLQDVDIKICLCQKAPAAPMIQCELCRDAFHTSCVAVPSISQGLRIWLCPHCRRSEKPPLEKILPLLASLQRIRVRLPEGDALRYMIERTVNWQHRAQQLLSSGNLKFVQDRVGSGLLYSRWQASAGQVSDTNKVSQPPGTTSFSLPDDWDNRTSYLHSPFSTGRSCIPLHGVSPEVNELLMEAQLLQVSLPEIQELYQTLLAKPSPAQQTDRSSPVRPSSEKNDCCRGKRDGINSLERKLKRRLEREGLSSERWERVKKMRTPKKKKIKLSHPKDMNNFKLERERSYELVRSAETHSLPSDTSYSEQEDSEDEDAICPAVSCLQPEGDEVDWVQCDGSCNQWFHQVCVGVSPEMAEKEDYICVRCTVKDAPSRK", "test": "Optimization screen for KDM5B Histone Demethylases FDH coupled qHTS against the LOPAC library (AID 1347166); further: potency means the concentration at half of the fitted maximal effect", "details": "KDM5B demethylation, FDH-coupled NADH fluorescence (FDH is formaldehyde dehydrogenase); series mostly up to 57.5 µM", "outline": "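KDM5BDeltaAP (200nM final) in 50mM HEPES pH 7.5, 0.01% Tween-20 was preincubated with compound for 10 min at room temperature. A substrate mix of 12.5uM H3K4Me3, 25uM a-ketoglutarate, ascorbate, Fe2+, NAD+ and formaldehyde dehydrogenase was then added. NADH fluorescence (340/450 nm) was read initially and after 30 min.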"}, "[22]": {"molecular_target": "Single-stranded DNA cytosine deaminase (Homo sapiens) (UniProt Q9GZX7)", "sequence (Q9GZX7 whole entry, looked up)": "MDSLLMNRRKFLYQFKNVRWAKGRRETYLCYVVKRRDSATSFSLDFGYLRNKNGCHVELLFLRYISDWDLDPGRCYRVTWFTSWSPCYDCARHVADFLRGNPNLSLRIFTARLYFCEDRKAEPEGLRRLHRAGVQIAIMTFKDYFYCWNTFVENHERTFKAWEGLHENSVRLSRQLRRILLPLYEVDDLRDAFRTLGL", "test": "Validation qHTS assay for inhibitors of Activation Induced Cytidine Deaminase (AID): AID signal (AID 1347429); further: potency means the concentration at half of the fitted maximal effect", "outline": "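Compounds (up to 114 uM final) are tested against AID plus UDG using DJC20/DJC23 FRET substrate. Reactions incubate 4 hr at room temperature, receive NaOH for 30 min, and are read at Ex 540/Em 590 nm.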"}, "[23]": {"test": "Primary qHTS for small molecule stabilizers of the endoplasmic reticulum resident proteome: Secreted ER Calcium Modulated Protein (SERCaMP) assay (AID 1508630)", "details": "SH-SY5Y GLuc-SERCaMP (Gaussia luciferase released on ER calcium loss) secretion, thapsigargin, luminescence; activity change, negative = inhibition: at 38.4 µM (top of the series) unless noted", "outline": "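The SH-SY5Y reporter protocol was run at 3 concentrations up to 38.3 uM (primary) or 11 concentrations (follow-up): 16 h compound, 100 nM thapsigargin for 4 h, then extracellular luciferase luminescence.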"}, "[24]": {"molecular_target": "Papain (Carica papaya) (UniProt P00784)", "sequence (P00784 whole entry, looked up)": "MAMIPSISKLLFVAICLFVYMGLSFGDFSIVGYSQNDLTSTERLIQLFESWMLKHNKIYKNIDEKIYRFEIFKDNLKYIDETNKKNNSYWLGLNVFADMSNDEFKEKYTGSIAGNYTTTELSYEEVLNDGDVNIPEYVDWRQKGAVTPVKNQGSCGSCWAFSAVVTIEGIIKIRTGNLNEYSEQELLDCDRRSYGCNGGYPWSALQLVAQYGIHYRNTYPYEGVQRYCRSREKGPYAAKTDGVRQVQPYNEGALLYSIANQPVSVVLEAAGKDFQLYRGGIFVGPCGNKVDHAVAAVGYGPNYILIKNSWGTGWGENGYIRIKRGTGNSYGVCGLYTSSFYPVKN", "test": "Primary qHTS assay for inhibitors of the protease papain (AID 1645873)"}, "[25]": {"molecular_target": "Metallo-beta-lactamase type 2 (Klebsiella pneumoniae) (UniProt C7C422)", "test": "qHTS to identify inhibitors of the New Delhi Metallo-beta-lactamase (NDM): assay validation screen against the NCATS LOPAC Collection (AID 1794843);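 further: nitrocefin turnover by NDM-1 measured as 485 nm absorbance at plateau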", "outline": "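Enzyme 2 nM final, 50 mM HEPES pH 7.0, 1 uM ZnSO4, 0.01% Tween20; cpds in DMSO, preincub w/ enzyme; + nitrocefin (50 uM stock); A485 at plateau; no-enzyme column as blank.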"}}, "note": "Inconclusive means that the source gave no clear call. Such entries were picked first, then a sample of the others. For some of these results: Potencies of inconclusive entries are left out as doubtful fits. Activity calls are given as the source filed them. Unless noted, the call rests on the fitted dose curve; in most records, active means well fitted curve in the direction sought with a large enough effect; inconclusive means small, poorly fitted or top-dose-only effect, or another doubt; inactive means no such curve, though single readings can be large; an effect the other way counts as inactive or inconclusive. Tags describe the fitted curve by direction and shape or compound fluorescence and quenching."}
{"smiles": "[N-]=[N+]=Nc1ccc(C(=O)CSC[C@H](NC(=O)CC[C@H](N)C(=O)O)C(=O)NCC(=O)O)cc1", "values": [{"measurement": "Potency", "setting": "[1]", "value": "inconclusive [inhibitor, full curve]"}, {"measurement": "Potency", "setting": "[2]", "value": "inconclusive [inhibitor, single point]"}, {"measurement": "Potency", "setting": "[3]", "value": "inactive"}, {"measurement": "Potency", "setting": "[4]", "value": "inconclusive [inhibitor, partial curve]"}, {"measurement": "Potency", "setting": "[5]", "value": "inconclusive [inhibitor, partial curve]"}, {"measurement": "Potency", "setting": "[6]", "value": "inconclusive [inhibitor, single point]"}, {"measurement": "Potency", "setting": "[7]", "value": "active: 28.2 µM"}, {"measurement": "Potency", "setting": "[8]", "value": "inactive"}, {"measurement": "Potency", "setting": "[9]", "value": "inconclusive [activator, partial curve]"}, {"measurement": "Potency", "setting": "[10]", "value": "inconclusive [falling, single point]"}, {"measurement": "Potency", "setting": "[11]", "value": "inconclusive [inhibitor, single point]"}, {"measurement": "Potency", "setting": "[12]", "value": "inconclusive [falling, single point]"}, {"measurement": "Potency", "setting": "[13]", "value": "active: 39.8 µM"}, {"measurement": "Potency", "setting": "[14]", "value": "inconclusive [activator, partial curve, poor fit]"}, {"measurement": "Potency", "setting": "[15]", "value": "inconclusive [inhibitor, partial curve]"}, {"measurement": "Potency", "setting": "[16]", "value": "inconclusive [falling, partial curve]"}, {"measurement": "Potency", "setting": "[17]", "value": "active: 23.9 µM"}, {"measurement": "Potency", "setting": "[18]", "value": "inconclusive [inhibitor, single point]"}, {"measurement": "Potency", "setting": "[19]", "value": "active: 35.5 µM"}, {"measurement": "Potency", "setting": "[20]", "value": "active: 7.52 µM"}, {"measurement": "Potency", "setting": "[21]", "value": "inconclusive [inhibitor, partial curve, poor fit]"}, {"measurement": "Potency", "setting": "[22]", "value": "inconclusive [inhibitor, partial curve]"}, {"measurement": "Potency", "setting": "[23]", "value": "inactive"}, {"measurement": "Potency", "setting": "[24]", "value": "inconclusive [inhibitor, partial curve]"}, {"measurement": "Potency", "setting": "[25]", "value": "inactive"}]}
